Consider three molecules from PMC3784504.

By UniProt entry, the sequences of proteins in these tests, tags left out.
UniProt P23696: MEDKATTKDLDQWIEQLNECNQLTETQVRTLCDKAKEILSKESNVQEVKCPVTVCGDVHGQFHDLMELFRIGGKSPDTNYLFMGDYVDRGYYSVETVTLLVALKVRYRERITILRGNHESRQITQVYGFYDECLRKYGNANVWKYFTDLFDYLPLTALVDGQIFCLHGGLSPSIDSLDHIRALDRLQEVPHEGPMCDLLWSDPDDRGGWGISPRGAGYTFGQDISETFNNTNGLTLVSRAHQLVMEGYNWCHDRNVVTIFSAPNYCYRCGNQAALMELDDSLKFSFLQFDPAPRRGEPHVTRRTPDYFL

Like-named read-outs stand apart in the source and are kept apart here. These are yes or no findings as the source states them, for the method shown. Binding seen in cells or lysates may run through a third protein. Some entries that bind do so weakly or less than the wild type. For some of these results: Where a sequence is shown, tags or fusion partners need not be part of it.

The target in experiment [1] is T1, cohesin subunit SMC1 (Drosophila (endogenous in embryos and S2 cells)) (UniProt Q9VCD8).
T1 sequence: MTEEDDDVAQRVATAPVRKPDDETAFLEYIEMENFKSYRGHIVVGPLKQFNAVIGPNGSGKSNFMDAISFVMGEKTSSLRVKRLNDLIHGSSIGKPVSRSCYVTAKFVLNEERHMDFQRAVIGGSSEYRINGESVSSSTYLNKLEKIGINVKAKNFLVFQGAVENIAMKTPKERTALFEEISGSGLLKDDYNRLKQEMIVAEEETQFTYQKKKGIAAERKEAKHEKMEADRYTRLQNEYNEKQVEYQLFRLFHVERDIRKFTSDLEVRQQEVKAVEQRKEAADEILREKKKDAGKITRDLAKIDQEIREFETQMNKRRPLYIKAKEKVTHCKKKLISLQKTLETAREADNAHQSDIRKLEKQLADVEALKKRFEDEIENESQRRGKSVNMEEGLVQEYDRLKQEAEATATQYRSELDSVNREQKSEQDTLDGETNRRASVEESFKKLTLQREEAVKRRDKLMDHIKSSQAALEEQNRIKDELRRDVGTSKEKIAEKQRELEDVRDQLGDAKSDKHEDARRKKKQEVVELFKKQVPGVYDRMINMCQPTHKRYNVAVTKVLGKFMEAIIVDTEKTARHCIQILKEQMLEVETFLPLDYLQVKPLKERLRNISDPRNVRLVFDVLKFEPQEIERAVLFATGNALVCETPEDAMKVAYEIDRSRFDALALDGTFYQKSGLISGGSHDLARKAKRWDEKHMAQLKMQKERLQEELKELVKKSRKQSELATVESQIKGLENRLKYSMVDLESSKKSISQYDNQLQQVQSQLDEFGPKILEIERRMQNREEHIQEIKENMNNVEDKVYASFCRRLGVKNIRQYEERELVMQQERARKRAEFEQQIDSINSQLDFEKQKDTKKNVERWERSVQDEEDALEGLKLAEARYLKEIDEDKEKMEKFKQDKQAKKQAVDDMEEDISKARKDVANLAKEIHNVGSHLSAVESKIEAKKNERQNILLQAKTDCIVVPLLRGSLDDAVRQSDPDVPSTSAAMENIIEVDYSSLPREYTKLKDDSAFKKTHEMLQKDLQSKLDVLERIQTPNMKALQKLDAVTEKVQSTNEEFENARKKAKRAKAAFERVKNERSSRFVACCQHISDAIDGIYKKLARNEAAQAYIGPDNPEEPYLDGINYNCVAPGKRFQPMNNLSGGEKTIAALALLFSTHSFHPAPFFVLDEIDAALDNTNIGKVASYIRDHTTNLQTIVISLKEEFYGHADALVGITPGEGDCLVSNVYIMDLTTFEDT
Kind of experiment: co-IP; IP of SA or SMC1 from S2 cell extracts; cells mock-treated or depleted of NAP1 and/or PP2A by RNAi, with or without colchicine; immunoblot.

In experiment [2] the target is protein phosphatase 2A (PP2A) catalytic subunit (Drosophila (endogenous in embryos and S2 cells)) (UniProt P23696). Description: co-IP; IP of SA or PP2A from Drosophila embryo nuclear extract; lower stringency washes, 200 mM KCl, 0.1% NP40; immunoblot.
The target is the same in experiment [3]. Kind of experiment: condition: only high stringency washes (600 mM KCl); co-IP; IP of SA, NAP1 or PP2A from Drosophila embryo nuclear extract; washes with 600 mM KCl, 0.1% NP40; immunoblot; mock IP with pre-immune serum. (Immunoblotting shows a protein as a band on a membrane.)
Experiment [4] addresses T1, cohesin subunit SMC1 (Drosophila (endogenous in embryos and S2 cells)). Kind of experiment: co-IP; IP of SA or SMC1 from S2 cell extracts; cells mock-treated or depleted of NAP1 and/or PP2A by RNAi, with or without colchicine; immunoblot. The source holds these as a separate data set.

In the case of “protein phosphatase 2A (PP2A) catalytic subunit (from UniProt P23696 1-309) (enzyme)”, in experiment [1], the binding result is listed as “binds”.

B1: MeiS332 (protein, UniProt Q24141 1-401)
chain: MGSKVEQQYKLLNAELMDQVQKQRLEIGEYRKRVISLEREIMDIREEHVLQNHRQRMENISIVRSLMLSLNVDSDSLAVRQEPAPAAQINRPSGPRRSSREICKDMRRTCALARTTRPISPRRSSSVTSTVSSTSRRSSAEVQSEVVTTRIPEDRRANKPTPPPRRPAELVFDEDDSDDDFDEAVSPVEETQTEQNEENNRLFSIIEENGSEGESTDSSSSCEAIYCDTTFESSPPNAQVTVTPSGRALREVDTNIPVAVSLSRGKETGKGSWLAISVAVEDSPQEPSIQCPRLAVTRPSQSSGIFPDVNGLTPRRSLFNGIGKMAGSTSTPKSFLVEEMPSIRTRSRTAANKKSENTDMSSSFCNNSARPSRSCRPTSLVEPSLKNKLRNGSKGKAKAKK
As to B1, the results for the binding result in experiment [2] and in experiment [3] were “binds” and “no binding”, respectively.

B2: histone chaperone NAP1 (protein, UniProt Q9W1G7 1-370)
chain: MDAPAEGHVDPESCNEIEDEKSGSDCQSMPAYMNSVMRRQYLQQMVKMLPAPVQNRIVFLKNLQLQHLNIEAQFFEDVYKLEQKYQVQYQPLFDKRREIIEGKVDPAEEKPQWKEPESSTDNEADAEHFREALSSLKSIPKDAKGIPGFWLTVFRNTAIMSEMVQPHDEPAIRKLIDISIKYDNGHSYTLEFHFDKNEYFSNSVLTKQYVLKSTVDPNDPFAFEGPEIYKCTGCTINWEKKMNLTVKTIRKKQKHKERGAVRTIVKQVPTDSFFNFFSPPEVPSDQEEVDDDSQQILATDFEIGHFLRARIIPKAVLYYTGDIVDDEDDEDEEEYDENEEDEYDDDDAPPPKGPKSAGIKKQSPNDCPNQ
Turning to B2, the binding result in experiment [4] was “binds”.
